# Values joined by “and” are separate entries in the source; they are usually repeats but may differ in a detail not shown here. Equal values may be shown once. Among all 390,000 compounds or so, about 1,400 (0.36%) were called active. This list was built around the results that the source calls inconclusive (neither active nor inactive); the mix of calls is not that of the screen. The call rests on the fitted dose curve; in most records, active means well fitted inhibition curve with a large enough effect; inconclusive means small, poorly fitted or top-dose-only effect; inactive means no such curve, though single readings can be large or run the other way. Potencies beside an inconclusive call are fits to weak or partial responses and may not hold up.
# Target: Flap endonuclease 1 (Homo sapiens) (UniProt P39748)
# UniProt P39748, sequence (P39748 whole entry, looked up): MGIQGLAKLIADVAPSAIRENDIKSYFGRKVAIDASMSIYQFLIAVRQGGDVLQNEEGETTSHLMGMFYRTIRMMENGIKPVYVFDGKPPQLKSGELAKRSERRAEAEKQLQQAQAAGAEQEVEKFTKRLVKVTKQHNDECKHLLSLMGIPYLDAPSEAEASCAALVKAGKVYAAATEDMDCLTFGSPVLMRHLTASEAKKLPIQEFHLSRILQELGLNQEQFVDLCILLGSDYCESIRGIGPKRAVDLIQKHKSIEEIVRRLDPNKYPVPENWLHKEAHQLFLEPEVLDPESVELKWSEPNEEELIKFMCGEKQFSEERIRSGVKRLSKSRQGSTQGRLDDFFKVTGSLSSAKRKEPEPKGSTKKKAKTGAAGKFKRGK
# Experiment: qHTS Assay for the Inhibitors of Human Flap endonuclease 1 (FEN1). Further: nearly all actives have a fitted effect of over 65% in size.
# Conditions: Recombinant FEN1 flap cleavage, fluorescence, 15 min; series mostly up to 114 µM
# In short: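 Read-out was taken twice, immediately and after 15 min, following addition of 50 nM substrate to 10 nM FEN1 that had sat with test compound for 15 min at room temperature. Curves came from a four-parameter Hill model.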
# Potency means the concentration at half of the fitted maximal effect; tags describe the fitted curve by direction and shape.
row,SMILES,Potency
1,COc1ccc(N/C=C/c2nc(SC)nnc2C)cc1,"inconclusive: 50.1 µM [inhibitor, partial curve]"
2,COc1cc(OC)c(OC)cc1CNc1sc2c(c1C(=O)Nc1ccccc1OC)CCC2,inactive
3,CCn1c(C(=O)N2CCCC(C(=O)N3CCN(c4cc(C)ccc4C)CC3)C2)cc2sccc21 (centres undefined),inactive
4,Cc1ccccc1NC(=O)CN1C(=O)S/C(=C\c2ccc(-c3cc(C(=O)O)ccc3C)o2)C1=O,"inconclusive: 39.8 µM [inhibitor, partial curve, poor fit]"
5,COc1ccc2[nH]c3c(NCCC4=CCCCC4)ncnc3c2c1,"inconclusive: 50.1 µM [inhibitor, partial curve, poor fit]"
6,CN(C)C(C)(C)C#CC(O)(c1ccccc1)c1ccccc1,"inconclusive: 89.1 µM [inhibitor, single point]"
7,CN(CCOc1ccc(Cl)cc1)CC(=O)Nc1ccc(OC(F)(F)F)cc1,"inconclusive: 10 µM [inhibitor, partial curve, poor fit]"
8,COc1ccc(-c2sc3ccccc3c2C#CCCO)cc1,"inconclusive: 79.4 µM [inhibitor, partial curve, poor fit]"
9,COc1cc([N+](=O)[O-])ccc1NC(=O)COC(=O)c1ccc(NC(N)=O)cc1,"inconclusive: 89.1 µM [inhibitor, single point]"
10,CCOC(=O)CNCCC(=O)c1ccc(Br)cc1,inactive
11,CCc1nn2c(=O)cc(COC(=O)Cc3ccccc3)nc2s1,inactive
12,N#Cc1ccccc1Cn1c(=O)n(Cc2ccc(C(=O)NCc3ccco3)cc2)c(=O)c2sccc21,inactive
13,CN(C)CCCN1C(=O)c2cccc3cccc(c23)C1=O,"inconclusive: 56.2 µM [inhibitor, partial curve]"
14,O=C(CSc1nc2cc(Cl)ccc2s1)c1cc2ccccc2o1,"inconclusive: 89.1 µM [inhibitor, partial curve, poor fit]"
15,CCn1c(/N=C/c2c[nH]c3ccccc23)nc2ccccc21,"inconclusive: 79.4 µM [inhibitor, partial curve, poor fit]"
16,Cc1csc(NC(=O)c2cccc(Cn3nc(C)c(Br)c3C)c2)n1,"inconclusive: 56.2 µM [inhibitor, partial curve, poor fit]"
17,CCOc1ccccc1/C=C\c1nc(O)c([N+](=O)[O-])c(=O)[nH]1,inactive
18,CC(=O)N1CCc2cc(Br)cc(S(=O)(=O)N3CCC(C(=O)Nc4cccc(C)c4C)CC3)c21,inactive
19,C[C@]12c3[nH]c4ccc(Cl)cc4c3CCN1C(=O)[C@@H](CC(=O)NCCC1=CCCCC1)C[C@@H]2C(=O)N1CCOCC1,"inconclusive: 89.1 µM [inhibitor, partial curve, poor fit]"
20,N=C1SC(c2ccccc2)C(=O)N1c1ncc(Cc2ccccc2Cl)s1 (centres undefined),inactive
21,C=CC[C@H](CC(=O)N(CCO)Cc1ccccc1)C(=O)NC[C@H](OC(=O)[C@@H](CC=C)Cc1ccc(F)cc1)c1ccccc1,"inconclusive: 35.5 µM [inhibitor, partial curve, poor fit]"
22,CCOC(=O)c1cc2c(=Cc3ccc(N(C)C)cc3)c3ccccc3n2[n+]1C,active: 22.4 µM

row,SMILES,Potency
1,CN(Cc1ccccc1)C(=O)c1ccc(CSc2nc3cccnc3n2Cc2ccccc2F)cc1,"inconclusive: 50.1 µM [inhibitor, partial curve]"
2,CC(C)CCNCC(O)CON=C1c2ccccc2-c2ccccc21 (centres undefined),"inconclusive: 79.4 µM [inhibitor, single point]"
3,COc1cc(C)nc(Nc2nc(C)c(C(C)=O)s2)n1,"inconclusive: 70.8 µM [inhibitor, partial curve, poor fit]"
4,CCOC(=O)c1c(C)n(-c2ccc(OC)cc2)c2ccc(OC(=O)COc3ccccc3)cc12,inactive
5,CC(C)CCn1c(SC(C)C#N)nc2ccccc2c1=O (centres undefined),"inconclusive: 44.7 µM [inhibitor, partial curve, poor fit]"
6,Cc1noc(C)c1S(=O)(=O)N1CCCC(C(=O)c2cccc(OC(C)C)c2)C1 (centres undefined),"inconclusive: 89.1 µM [inhibitor, single point]"
7,CC(/C=N/n1c(C2CCCCC2)n[nH]c1=S)=C\c1ccccc1,"inconclusive: 56.2 µM [inhibitor, partial curve, poor fit]"
8,CNc1ccc(Br)cc(C(=O)/C=C/c2cccc(OC)c2)c1=O,"inconclusive: 79.4 µM [inhibitor, single point]"
9,CC1(OC(=O)c2ccco2)C(=O)C=C2C=C(C3CC3)OC=C2C1=O (centres undefined),"inconclusive: 44.7 µM [inhibitor, partial curve]"
10,CC(C)CCN(C(=S)Nc1cccc(F)c1)C(C)c1cccs1 (centres undefined),"inconclusive: 70.8 µM [inhibitor, partial curve, poor fit]"
11,COc1c(CC=C(C)C)cc(C2CC(=O)c3c(O)cc(O)cc3O2)c(CC=C(C)C)c1O (centres undefined),"inconclusive: 25.1 µM [inhibitor, partial curve, poor fit]"
12,CN(C)c1ccc(/C=C/c2sc3ccccc3[n+]2C)cc1,active: 50.1 µM
13,COc1ccc(/C=C2\SC(=S)N(CCCC(=O)Nc3ccc(C(=O)O)cc3)C2=O)cc1OC,"inconclusive: 56.2 µM [inhibitor, partial curve]"
14,COc1ccc(-c2cc3ncc(C)n3c(Nc3ncccc3C(N)=O)n2)cc1OC,"inconclusive: 1.89 µM [inhibitor, full curve]"
15,COc1ccc2c(=O)c3c(=O)n(Cc4ccco4)c(-c4ccccc4)nc3oc2c1,inactive
16,Cc1nc2ccc(-c3nc4cc(N)ccc4o3)cc2[nH]1,"inconclusive: 50.1 µM [inhibitor, partial curve, poor fit]"
17,Cc1ccc(NC(=O)C2CCCN(C(=O)c3ccc(Cl)cc3)C2)cc1C (centres undefined),inactive
18,COCCCNC(=O)c1cccn2c(=O)c3cc4ccccc4cc3nc12,"inconclusive: 17.8 µM [inhibitor, full curve]"
19,O=C(O)/C=C/c1ccc(S(=O)(=O)Nc2ccc3[nH]c(=O)[nH]c3c2)cc1,inactive
20,N#Cc1nc(-c2cccc3ccccc23)oc1NCCN1CCCCC1,"inconclusive: 89.1 µM [inhibitor, single point]"
21,O=C(Nc1cccc(-c2cn3cccnc3n2)c1)c1ccc(Br)o1,inactive
22,Cn1c(=O)c2sccc2n2c(CCCC(=O)Nc3ccc(Oc4ccccc4)cc3)nnc12,"inconclusive: 31.6 µM [inhibitor, partial curve, poor fit]"

row,SMILES,Potency
1,C[C@H]1c2cccc(O)c2C(O)=C2C(=O)C3(O)C(O)=C(C(N)=O)C(=O)[C@@H](N(C)C)[C@@H]3[C@@H](O)[C@@H]21 (some centres undefined),"inconclusive: 15.8 µM [inhibitor, full curve]"
2,Nc1nc(-c2ccccc2)c(N=Nc2ccccc2Cl)s1,"inconclusive: 56.2 µM [inhibitor, partial curve, poor fit]"
3,COCCCNC(=S)N1CCCN(c2nc3cc(C)c(C)cc3cc2C#N)CC1,"inconclusive: 79.4 µM [inhibitor, partial curve, poor fit]"
4,CCCCNc1c(-c2ccc(OC)c(SC(C)CC)c2)nc2cc(C)ccn12 (centres undefined),"inconclusive: 25.1 µM [inhibitor, partial curve, poor fit]"
5,Cc1c(NC(=O)C(C)OC(=O)c2ccc([N+](=O)[O-])s2)c(=O)n(-c2ccccc2)n1C (centres undefined),inactive
6,CC1(C)N=C(c2ccc(Cl)cc2)C(=O)N1,inactive
7,CC(=O)c1ccc(NC(=O)c2ccc3nc(-c4ccco4)c(-c4ccco4)nc3c2)cc1,active: 50.1 µM
8,O=S(=O)(NCCc1csc2nc(-c3ccccc3)nn12)c1ccc(Oc2ccccc2)cc1,inactive
9,Oc1ccc(-c2cn3c(n2)SCC3)cc1O,"inconclusive: 39.8 µM [inhibitor, partial curve]"
10,CCOC(=O)c1cc2c(=O)n3ccccc3nc2n(Cc2ccco2)c1=NC(=O)c1cccc(Br)c1,"inconclusive: 50.1 µM [inhibitor, partial curve, poor fit]"
11,CSc1nsc(/C=C/Nc2ccc(O)cc2C)c1C#N,"inconclusive: 28.2 µM [inhibitor, full curve]"
12,O=C1C=C(NCc2ccccc2)c2ccccc2C1=O,"inconclusive: 39.8 µM [inhibitor, partial curve, poor fit]"
13,OCCCCCN=c1cc(-c2ccccc2)oc2ccc(Cl)cc12,"inconclusive: 44.7 µM [inhibitor, partial curve]"
14,COc1ccc(NS(=O)(=O)c2ccc3c(c2)[C@H]2C=CC[C@H]2[C@@H](c2ccc(C(=O)O)cc2)N3)cc1,active: 31.6 µM and active: 20 µM
15,C=CS(=O)(=O)c1c2cc(OC)ccc2nc2ccc(OC)cc12,"inconclusive: 79.4 µM [inhibitor, single point]"
16,O=C(CCC(=O)c1cccs1)NCCc1ccc(F)cc1,inactive
17,Cc1ccc(C(=O)Nc2cccc(C(=O)N/N=C/c3ccc(O)cc3)c2)cc1,"inconclusive: 89.1 µM [inhibitor, single point]"
18,Cn1c(SCC(=O)N/N=C/C=C\c2ccco2)nc2ccccc21,"inconclusive: 89.1 µM [inhibitor, single point]"
19,CCOC(=O)c1ccc(NC(=O)CSc2ncc(S(=O)(=O)c3ccc(C)c(Cl)c3)c(=O)[nH]2)cc1,"inconclusive: 79.4 µM [inhibitor, partial curve, poor fit]"
20,Cn1c(=O)c(Nc2ccc(O)cc2)c2c3c(cccc31)C(=O)c1ccccc1-2,"inconclusive: 44.7 µM [inhibitor, partial curve]"
